ChEMBL document CHEMBL4888484, “Replenishing the malaria drug discovery pipeline: Screening and hit evaluation of the MMV Hit Generation Library 1 (HGL1) against asexual blood stage Plasmodium falciparum ,using a nano luciferase reporter read-out” (2022)
Out of some 150,000 compounds screened, about 540 (0.36%) showed an effect of 50% or more. Some of the results follow.

What follows are compounds tested on Plasmodium falciparum (assay: Primary screen in NF54 nanoGlo assay, in single point, at 2uM, 72h; a lower Z score goes with more inhibition). Conditions: timepoint 72 hour.
Assay type: functional, Erythrocyte

Row | Structure (SMILES) | % Inhibition | Z score
1 | CCOc1ccc(-c2c3n(c4ccc(O)cc24)CCc2cc(OCC)c(OCC)cc2-3)cc1OCC | 0% | 0
2 | O=C(c1ccccc1OCC1CCCO1)N1CC2CCCC2C1 (stereo unspecified) | -11% | 1.53
3 | CCCOCc1ccccc1CNC(=O)N1CCC2(CCOCC2)C1 | 35% | -3.91
4 | Cc1cc(C)c(NC(=O)CCn2c(=O)c(C)nc3cc(C)c(C)cc32)c(C)c1 | 34% | -1.01
5 | Cc1cccc(C)c1OCC(O)CNC1CCS(=O)(=O)C1 (stereo unspecified) | -7% | 0.98
6 | Cc1ccc(-c2ncc(C(=O)N(C)Cc3cnn(C)c3)c(O)n2)cc1 | -5% | 0.91
7 | CC(=O)Nc1cccc(NCC(=O)N(Cc2ccc(C)o2)C2CC2)c1 | 3% | -0.46
8 | CN(C(=O)c1ccc(-n2cccn2)nc1)C1CCCCCCC1 | 2% | -0.24
9 | CCO[C@H]1CCCN(C(=O)c2ccc3c(c2)NCC3)C1 | -6% | 0.73
10 | O=C(NCc1ccccn1)[C@H]1CCCN(C2CCN(Cc3ccccc3F)CC2)C1 | -3% | 0.57
11 | Cc1cc(C)c(S(=O)(=O)N(CCCc2ccccc2)CC(=O)N2CCNCC2)cc1C | 8% | -0.9
12 | Cc1cc(Cc2nc(-c3c4n(c(C)cc3=O)CCC4)no2)no1 | 1% | -0.15
13 | O=C(c1cccc(-n2cnnn2)c1)N1CCn2c1nc1ccccc12 | 2% | -0.23
14 | CC1(C)NC(=O)N(CNc2ccc(Oc3ccccc3)cc2)C1=O | -32% | 3.71
15 | CC(C)[C@H]1NC(=O)[C@@H](Cc2c[nH]c3ccccc23)NC1=O | -6% | 1.15
16 | COc1ccc(CCC(=O)N2CC(F)(F)C[C@H]2c2nncn2Cc2ccc(F)cc2)cc1 | 2% | -0.25
17 | CC(C)NS(=O)(=O)c1cccnc1N1CCC(O)(C(F)(F)F)CC1 | 0% | 0
18 | COc1ccc(CN2C[C@H]3CC=CC[C@H]3C2)cc1Cn1cccn1 | -21% | 2.78
19 | O=C(NCC(=O)N1CCC1)c1cccc(Cl)c1 | -11% | 1.92
20 | COc1cc(C(=O)N2Cc3ncccc3N3CCC[C@H]3C2)sn1 | -4% | 0.6
21 | Cn1c(NC(=O)CCN2CCCS2(=O)=O)nc2cccc(Cl)c21 | -9% | 0.95

Row | Structure (SMILES) | % Inhibition | Z score
22 | Cc1c(Cl)cccc1NC(=O)CCNc1cc(C#N)ccn1 | 3% | -0.45
23 | O=S(=O)(Cc1c(Cl)cccc1Cl)N[C@H]1CCCNC1 | 7% | -1.17
24 | CC(C)c1nc(N2CCCN(S(=O)(=O)c3ccccc3)CC2)c2cnn(-c3ccccc3)c2n1 | -17% | 1.69
25 | O=C(N[C@]1(CO)COc2ccccc2C1)c1csnn1 | -5% | 0.93
26 | CC(C(=O)Nc1ccccc1-c1ccccc1)N1CCCC1c1cccn1C (stereo unspecified) | -2% | 0.44
27 | O=C(NC1CCCC1)[C@@H](c1ccccc1)N1CCS(=O)(=O)CC1 | 7% | -0.84
28 | CCn1cnnc1[C@H](C)NC(=O)c1coc(COc2ccc(F)cc2)n1 | 1% | -0.11
29 | COCCNC(=O)[C@H]1CCCN(c2nc(C)nc3oc(C)c(C)c23)C1 | -9% | 0.86
30 | Cn1nc(NC(=O)C2CCCCC2)c2cccnc21 | 0% | -0.03
31 | COc1cc(OC)c(OC)cc1CN1CC[C@@]2(CCCN(CC3CCC3)C2)C1 | -7% | 0.66
32 | Cc1ccc(OCC(=O)Nc2ccc(N3CCN(c4c(F)c(F)c(F)c(F)c4F)CC3)c(Cl)c2)cc1C | 13% | -2.02
33 | O=C(NC(c1ccccc1)[C@H]1C[C@@H](O)C1)c1ccc(CO)cc1 (stereo partly specified) | -10% | 1.78
34 | Nc1nc(CN[C@@H](CCc2ccc(F)cc2)C2CCC2)n[nH]1 | -7% | 1.16
35 | CCCCCNC(=O)CN1CCC2(O)CCCCC2[C@@H]1c1ccc(O)c(OC)c1 (stereo partly specified) | -12% | 2.21
36 | O=C(NCc1ccccc1Cl)c1cc(NS(=O)(=O)c2ccc(F)cc2)cc(NS(=O)(=O)c2ccc(F)cc2)c1 | -1% | 0.22
37 | CCn1cnnc1CNC1CCCCC1c1ccccc1 (stereo unspecified) | 0% | -0.06
38 | CCCCn1c(N)c(N(C(=O)[C@@H]2COc3ccccc3O2)C2CCCC2)c(=O)[nH]c1=O | 25% | -2.79
39 | Cc1noc(C2CCCN(C(=O)C(C(C)C)n3cncn3)C2)n1 (stereo unspecified) | 6% | -1.23
40 | CC1CCCCC1N(C)C(=O)c1ccc(=O)n(C)n1 (stereo unspecified) | -11% | 1.43
41 | CC[N+](CC)(CC)C1[N-]c2ccc(C)cc2C(c2ccccc2)(C(F)(F)F)N1 (stereo unspecified) | -10% | 1.83
42 | CCn1c(CN2CCCC2)nc2cc(S(=O)(=O)N3CCCCC3)ccc21 | -46% | 5.44

Row | Structure (SMILES) | % Inhibition | Z score
43 | O=C(Cc1scnc1-c1cccs1)NCc1ccc(F)cc1 | -1% | 0.07
44 | O=c1c2cc(F)ccc2c(Br)cn1CC1(CO)COC1 | 20% | -2.48
45 | Cc1ccc(C(=O)N2CCC[C@@H]2COc2ccc(C(=O)N3CCOCC3)cc2)cc1F | -36% | 6.88
46 | Cc1csc(CNc2ccc(F)cc2OCC(F)F)n1 | -11% | 1.79
47 | CS(=O)(=O)Nc1ccc2c(c1)C(=O)Nc1ccccc1O2 | -12% | 1.39
48 | O=C(C1CCCC1)N1Cc2cccnc2C1 | -7% | 1.21
49 | COC(=O)[C@](NC(=O)C(F)(F)F)(c1cccn1C)C(F)(F)F | -6% | 0.92
50 | CCn1nccc1CNc1nc(C)nn1C | -12% | 1.78
51 | N#CCN(C1CC1)S(=O)(=O)c1ccc2c(c1)CCO2 | -16% | 1.61
52 | C[C@H](Oc1ccccc1)C(=O)NC(C)(C)CC(C)(C)C | -12% | 2.32
53 | CCOc1cccc2nnc(NC(=O)CCC(=O)N3CCCCCC3)n12 | -13% | 1.46
54 | CS(=O)(=O)NC1CCCCC1CNC(=O)[C@H]1C[C@@H]1C1CC1 (stereo partly specified) | 4% | -0.63
55 | Cc1nc(C(=O)N(Cc2cccnc2)C2CCN(C)CC2)c(C)s1 | -24% | 2.37
56 | COCC1(S(=O)(=O)N[C@@H](C(=O)OC)c2cc(C)cc(C)c2)CC1 | -6% | 0.69
57 | O=C(NC[C@H](O)C1CCC1)C1(O)CCCCC1 | -10% | 1.91
58 | O=C(NC1CCCCCCC1)c1ccc(CN2C(=O)CCn3nc(-c4ccccc4)cc32)cc1 | 14% | -1.59
59 | CCOC(=O)[C@H]1CCCN(c2nc(-c3cccc(OC)c3)cc(C(F)(F)F)n2)C1 | 32% | -3.67
60 | Cc1n[nH]cc1CN(C)C(=O)c1cnc2cccc(C)n2c1=O | -14% | 2.08
61 | CC(=O)N1CCc2c(sc(NC(=O)c3ccc4c(c3)OCCO4)c2-c2nc3ccccc3s2)C1 | -5% | 0.9
62 | Cc1cc(C(=O)N2CCn3nc(C(=O)N4CCCC4)cc3C2)[nH]n1 | 5% | -0.82
63 | CC(C)(CNC(=O)NCc1cc(F)cc(F)c1)C1(O)CCOCC1 | -2% | 0.28

Row | Structure (SMILES) | % Inhibition | Z score
64 | CC(C)Cn1nccc1C(=O)N[C@H](CO)Cc1nccs1 | -6% | 1.24
65 | CC1(CO)CCCC1NS(=O)(=O)N1CCCCCC1 (stereo unspecified) | -4% | 0.38
66 | CCCC(CCC)N(CC1CC2CCC(C1)N2C)C(=O)CNC(=O)CC(C)(C)C (stereo unspecified) | 5% | -0.6
67 | CCC(=O)Nc1ccc(N2CCN(C(=O)C3CCCC3)CC2)c(C(=O)NCc2ccc(F)cc2)c1 | -11% | 1.8
68 | COc1cccc(N2C[C@H](C)N(C(=O)NCc3ccc(C)cc3)CC2=O)c1 | 3% | -0.35
69 | CC(C)=CCN1C(=O)[C@@H]2CC[C@H]1CN(C(=O)CCn1ccc(=O)[nH]c1=O)C2 | -10% | 1.03
70 | CN1CC(=O)N(C[C@]2(C)OCCc3ccccc32)C1=O | -7% | 0.74
71 | Cc1n[nH]cc1CN(C)C(=O)CCCc1cn[nH]c1 | -7% | 1.25
72 | O=C(NC[C@@H](CO)Cc1ccc(F)c(F)c1)c1cc(C2CC2)no1 | 0% | 0.03
73 | O=C(Cn1cc(-c2ccc(F)cc2)cn1)N1CCN(c2ccccn2)CC1 | -6% | 1.08
74 | COc1ccccc1-c1noc(C2CCN(c3oc(C)nc3C#N)CC2)n1 | 21% | -2.84
75 | CC(=O)c1c(-c2ccc(C(=O)N(C)Cc3nc(C)cs3)cc2)cnn1C | 1% | -0.15
76 | O=C(NCc1ccco1)N(CCN1CCCCC1)C1CCOCC1 | 5% | -0.88
77 | CC(C)Cn1cc(C(=O)NCCS(N)(=O)=O)cn1 | -2% | 0.38
78 | C=CCC[C@H](O)CN(Cc1c(C(C)C)nn(-c2ccccc2)c1Oc1ccccc1F)CC1CC1 | -7% | 1.09
79 | CCN(Cc1cccs1)C(=O)c1cc(C)no1 | 1% | -0.09
80 | C=CCCC(=O)NCCc1ccc(C)c(OC)c1 | 4% | -0.62
81 | Cc1sc2ccccc2c1-c1ccn(CC(=O)Nc2cnn(C)n2)n1 | -5% | 0.79
82 | COc1ccc(NC(=O)COc2c(C)[nH]ccc2=O)c(OC)c1 | 2% | -0.3
83 | CCc1ccc(OCC(=O)c2ccc3c(c2)N(Cc2ccc(C(=O)N[C@@H](C)CC)o2)C(=O)CO3)cc1 | 1% | -0.12
